Data reported in publication PMC4336329 (PLoS ONE, 2015).
About 2,200 (0.71%) of roughly 310,000 compounds showed an effect of 50% or more. Effects have a minus sign here. This is one part of the list.

target: human ether-à-go-go-related gene (hERG) potassium channel (human, UniProt Q12809); assay: primary screen, population patch clamp on CHO cells stably expressing hERG
Sequence (Q12809 whole entry, looked up): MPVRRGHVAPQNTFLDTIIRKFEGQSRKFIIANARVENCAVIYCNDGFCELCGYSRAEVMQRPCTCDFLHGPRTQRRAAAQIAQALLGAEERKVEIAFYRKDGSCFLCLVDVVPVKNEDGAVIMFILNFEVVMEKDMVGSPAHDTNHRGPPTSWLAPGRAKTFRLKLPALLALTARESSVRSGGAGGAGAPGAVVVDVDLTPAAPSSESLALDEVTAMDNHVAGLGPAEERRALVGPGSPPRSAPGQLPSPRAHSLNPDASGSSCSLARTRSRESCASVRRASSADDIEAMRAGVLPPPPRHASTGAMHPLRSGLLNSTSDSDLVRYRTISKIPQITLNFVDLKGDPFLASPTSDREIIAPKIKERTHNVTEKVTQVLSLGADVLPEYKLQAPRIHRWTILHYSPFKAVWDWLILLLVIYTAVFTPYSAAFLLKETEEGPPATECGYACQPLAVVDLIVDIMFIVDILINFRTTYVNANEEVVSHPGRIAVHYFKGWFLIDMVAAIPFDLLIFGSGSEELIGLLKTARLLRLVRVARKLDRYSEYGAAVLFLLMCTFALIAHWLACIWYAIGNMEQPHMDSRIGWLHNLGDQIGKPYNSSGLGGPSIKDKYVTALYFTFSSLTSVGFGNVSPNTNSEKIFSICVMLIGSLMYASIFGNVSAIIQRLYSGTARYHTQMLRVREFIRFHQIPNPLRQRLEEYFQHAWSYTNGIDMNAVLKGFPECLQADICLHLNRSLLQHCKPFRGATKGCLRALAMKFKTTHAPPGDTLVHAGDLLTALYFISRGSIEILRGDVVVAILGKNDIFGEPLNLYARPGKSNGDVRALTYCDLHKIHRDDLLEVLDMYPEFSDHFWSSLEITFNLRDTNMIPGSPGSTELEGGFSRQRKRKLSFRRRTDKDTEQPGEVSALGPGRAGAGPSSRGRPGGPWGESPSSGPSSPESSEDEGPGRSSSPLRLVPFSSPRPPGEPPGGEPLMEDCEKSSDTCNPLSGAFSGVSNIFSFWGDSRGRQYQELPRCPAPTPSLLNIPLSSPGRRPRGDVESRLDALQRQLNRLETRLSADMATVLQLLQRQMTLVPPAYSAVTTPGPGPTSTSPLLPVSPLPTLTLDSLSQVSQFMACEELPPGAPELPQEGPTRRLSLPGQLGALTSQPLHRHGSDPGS

SMILES	hERG current change (%, negative = inhibition) at 1uM [%]
O=C1CC(C(=O)N2CCCc3ccccc32)CN1c1ccc(Cl)cc1 (stereo not shown)	-4.4
O=C(COC(=O)Cc1ccsc1)NCc1ccc(Cl)cc1	13.1
COc1cccc(OCCCn2ccnc2)c1.Cl	13.4
CC(=O)N1CCOc2ccc(S(=O)(=O)NCc3ccccc3Cl)cc21	1.09
O=C1Nc2ccccc2C1=Nc1ccc(-c2nnc3n2CCCCC3)cc1	4.35
CCOc1ccc(S(=O)(=O)NC(C)C(=O)NCc2ccncc2)cc1 (stereo not shown)	12.8
CCC(=O)Nc1ccc2c(c1)C(=O)N(C1CCCCC1)C2=O	9.33
COc1ccc(S(=O)(=O)N2CCCC(C(=O)NCCc3ccccc3)C2)cc1 (stereo not shown)	15.8
Cc1cc(/C=N/n2cnnc2)c(C)n1-c1ccc(OCc2ccccc2F)cc1	14.1
COCCn1c(C)cc(C(=O)CSc2nncn2-c2ccccc2)c1C	8.85
CSCCC(NS(=O)(=O)c1ccc2c(c1)oc(=O)n2C)C(=O)NC1CCN(Cc2ccccc2)CC1 (stereo not shown)	12.3
CC(=O)c1ccc(N2CCN(c3ccc4cc(S(=O)(=O)N5CCC(C)CC5)ccc4n3)CC2)cc1	7.63
Cc1csc(NC(=O)c2ccc(OCC3CCCO3)cc2)n1 (stereo not shown)	7.76
CCOC(=O)C(C(=O)OCC)C(=O)c1cc(OC)c(OC)c(OC)c1	12.6
Cc1cccc(OCc2nnc(SCC(=O)Nc3sc(C)c(C)c3C#N)n2C)c1	14
O=C(Nc1ccc2c(c1)oc1ccccc12)c1ccncc1	5.44
O=C(c1ccccn1)N(Cc1cc2ccccc2[nH]c1=O)C1CCCCC1	5.11
Cc1cc(C)cc(NC(=O)C2CCCN2C(=O)Oc2ccccc2)c1 (stereo not shown)	-0.455
O=C(CCC1CCCN(C(=O)CCCc2ccccc2)C1)N1CCN(c2ccccn2)CC1 (stereo not shown)	-6.61
COc1ccccc1N1CCN(CCC(=O)Nc2cccc(Cl)c2)CC1.Cl	-20.9
Cc1ccc(N2C(=O)[C@@H]3[C@H](C2=O)C2c4ccccc4C=NN2[C@@H]3C(=O)c2ccc(Cl)cc2)cc1 (stereo partly shown)	8.4
O=S(=O)(Nc1ccc(N2CCCCC2)cc1)c1cccs1	9.38
Cc1ccc(NC(=O)CSc2nnc(-c3n[nH]c4ccccc34)n2-c2ccccc2)c(C)c1	15.3
C=CCN(c1ccc(C(=O)Nc2ccc(C)c(C)c2)cc1)S(C)(=O)=O	5.22
COc1ccccc1N1C[C@@H]2C[C@@H](c3ccco3)N3CCC[C@@]23C1=O	14.7
Cc1ccc2nc(SCC(=O)Nc3cc(C(C)(C)C)nn3-c3ccccc3)[nH]c2c1	-0.742
CCc1ccccc1NC(=O)C(Cc1ccccc1)c1nn[nH]n1 (stereo not shown)	10.2
Cc1ccc(Sc2sc(=O)n(C)c2S(=O)(=O)c2ccc(C)cc2)cc1	5.93

SMILES	hERG current change (%, negative = inhibition) at 1uM [%]
CC1CCN(CCCCOc2ccc(C(=O)c3ccccc3)cc2)CC1.O=C(O)C(=O)O	-72.4
Cc1oc(-c2cccc(Cl)c2)nc1CN1CCC(C(=O)N2CCN(c3ccccc3F)CC2)CC1	1.87
COC(=O)c1cnc(Nc2ccc(Cl)cc2)c([N+](=O)[O-])c1	9.69
C=CCn1c(C(C)NC(=O)c2cccc(C)c2)n[nH]c1=S (stereo not shown)	16.5
O=C(CCCOc1ccccc1)Nc1ccc2c(c1)OCCO2	16.3
Cc1cc(=O)[nH]c(-c2ccccc2)n1	15.1
Cc1ccc(CN(Cc2ccco2)S(=O)(=O)c2ccc(S(=O)(=O)NCC3CCCO3)cc2)cc1 (stereo not shown)	11.1
CCCn1c(SCC(=O)c2cc(C)c(C)cc2C)n[nH]c1=O	18.2
Cc1nn(-c2ccccc2)c(Cl)c1/C=C/C(=O)c1ccccc1	0.915
C=CCn1c(O)c(C=Nc2ccc(N(CC)CC)cc2)c(=O)[nH]c1=O	-1.24
Cc1ccc(NC(=O)COC(=O)c2ccc(S(=O)(=O)N3CCCCC3)cc2)cc1	19.4
CCOC(=O)c1cc(-c2ccc(Cl)cc2)nc2c1c(C)nn2CCC#N	10.9
Cc1onc(-c2ccccc2Cl)c1C(=O)N1CCN(C)CC1	16.9
O=C(COc1cccc2ccccc12)N/N=C/c1ccco1	12.8
COc1ccc(N2CC(C(=O)NCCCN3CCOCC3)CC2=O)cc1 (stereo not shown)	-3.65
Cc1cc(NS(=O)(=O)c2ccc(NC(=O)COc3ccccc3C(C)C)cc2)no1	18
Cc1csc(SCC(=O)NC(=O)c2ccccc2)n1	8.15
CCC1(C)OC(=O)NN(c2ccc(C)cc2)C1(C)O (stereo not shown)	13.6
C=CCC12C=C(OC)C(=O)OC(OC)(C1O)[C@H](c1ccc3c(c1)OCO3)[C@H]2C (stereo partly shown)	12.8
Cc1ccc2[nH]c(=O)c(CN(CCc3ccccc3)C(=O)N3CCOCC3)cc2c1	2.19
CC(C)CCNC(=O)C1CCC(CNc2c(N3CCCC3)c(=O)c2=O)CC1 (stereo not shown)	11.3
O=C(COC(=O)/C=C/c1ccccc1[N+](=O)[O-])Nc1ccc(OC(F)F)cc1	9.59
CC(C)(C)C(=O)NNC(=O)c1cnccn1	6.94
Cc1ccc(-c2cccc(OC(=O)c3ccccc3F)c2)cc1	4.52
Cc1ccc(C)c(NS(=O)(=O)c2cc(Br)cnc2N)c1	11.4
Cc1ccc(S(=O)(=O)Nc2ccc(S(=O)(=O)N3CCOCC3)cc2)cc1	11.1
Cc1ccc(C)c(S(=O)(=O)N2CCN(CC(=O)Nc3cc(C)on3)CC2)c1	0.567
